T1: UNK ZnF1-3 (human, UniProt Q9C0B0 31-174)
T1 sequence: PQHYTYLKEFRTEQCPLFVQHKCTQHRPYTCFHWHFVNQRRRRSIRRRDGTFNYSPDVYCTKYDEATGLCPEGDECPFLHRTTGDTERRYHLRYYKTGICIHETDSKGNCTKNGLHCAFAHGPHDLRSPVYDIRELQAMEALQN

B1: chr7:135612270:135612271:-_ENSG00000105887_ENST00000393085|hu_mus|hu_hu_hu_mus_False|28_28 (ssRNA)
RNA: GGGAGUUCUACAGUCCGACGAUCGUUUUUUUCUGAGAUGUUAAAUAGUACUUCAGUGGAAAACAAAACUUAACCUUUUAUUAAUGCGUGUUGUACCAAAAGCAGACCAUGGUUUUACAUUUAUUCAAAAAUAUUAACAUUAAGCAACAGAGGAUUGAGCAUCA
B2: chr19:16212804:16212805:+_ENSG00000167460_ENST00000300933|hu_mus|hu_hu_hu_mus_False|8_18 (ssRNA)
RNA: GGGAGUUCUACAGUCCGACGAUCAACAAUUCUGGAGUGAAGGAAAGAUGUAACAUGGAACAGCAUUAAAGCUCAGUCAGAAGGCACAUGGGCAACAAUGAUCACCCCAGCAUUCUCCUACGUUGACUGCUUGAGAAAUCUGUUCAACAGAGGAUUGAGCAUCA
B3: chr7:44244176:44244177:+_ENSG00000106636_ENST00000223369|hu_mus|hu_hu_hu_mus_False|48_88 (ssRNA)
RNA: GGGAGUUCUACAGUCCGACGAUCACUGUCGCUCCGGACGUAGACAUGGCACAGAUACUCUUGUUCUUUGACAGAAGCUCUGCUGCCUUUCGAUGAGCGUUCCACAAUCAGUUGACUUGUAAAGGUCAUGAAUUCCUGCACACUCAACAGAGGAUUGAGCAUCA
B4: chr17:65944371:65944372:-_ENSMUSG00000024091_ENSMUST00000024897|mus_mus|motif|central (ssRNA)
RNA: GGGAGUUCUACAGUCCGACGAUCGGGCCGCACACAGUACCGGCGAGGUGCUGUAGUCUUCACUUUGAAACACACUUUUCGGUCCGAUGGAUUUUGCAAUUUAAGAUUUGUAGUGACUACAUCUGUGAAGGGGCCUUUGAAUUUCAACAGAGGAUUGAGCAUCA
B5: 90049570_90049690_1667_3pUTR_ENSG00000197147_ENST00000439853|human|control|control (ssRNA)
RNA: GGGAGUUCUACAGUCCGACGAUCAGGCGGAGGAUUUUUAAAUUCUCCUCUAGAAAGGCCAGUGCAGGAUGGUCUACGACCAGAGAUGAAUGGUACACACGAAGCUCCUUGAGGUUGACCAGCUGUGAGACUGCAGAGGGCAGCCAACAGAGGAUUGAGCAUCA
B6: chr3:10015032:10015033:+_ENSMUSG00000027533_ENSMUST00000029046|mus_mus|mus_mus_mus_hu_True|68_98 (ssRNA)
RNA: GGGAGUUCUACAGUCCGACGAUCGUUUUUACCAUCACACGUAAUGAUACAAUCUGGCUUGGCCAUUGCAGCCAUCUUUCGCAAAGCUAUUCCCACUCCUAGCUCCUUCAUGUAUUCAUCAAAGCCUUUGCUGUCCACCAGGCGCAACAGAGGAUUGAGCAUCA
B7: chr2:232320318:232320319:-_ENSG00000115053_ENST00000322723|hu_hu|FALSE|FALSE (ssRNA)
RNA: GGGAGUUCUACAGUCCGACGAUCACUGUUGAAGUCUACAAAACCAAACCCUUUGGAGGACCCAGUUUCCCGGUCAGUAACUAUCCUUGCCCGAACGGAGCCGUCAAAUGACUCCUUUAAUGUCUCUUCAGUGGUAUCCUCAGACAACAGAGGAUUGAGCAUCA
B8: 172315744_172336697_262_CDS_ENSG00000113719_ENST00000393784|human|control|control (ssRNA)
RNA: GGGAGUUCUACAGUCCGACGAUCUGGGUCAUCGACAUAGAGCUCGUUCACAACUUCUGUCGUUAUAAAUCCGGUGAGCUCCGAGAGGAAGAGGAAGAGGAUGAAGAGGCAGCAGCAGAUGGAGAUAAUGGCCCCGGUGUACGUCAACAGAGGAUUGAGCAUCA
B9: chr4:169848332:169848333:+_ENSG00000129116_ENST00000507735|hu_hu|motif|central (ssRNA)
RNA: GGGAGUUCUACAGUCCGACGAUCUUGCAUUUUCCUUCAUUCUCCUCCCUACUCCUUCCAAACCCCUGAUUCCUCCAAAUACGGUAUAUGCCUUGGUCAUUUGGGUGGUUUGGAUGCUUUCUGUGGAAUGAACUGUAAUAUAUUCAACAGAGGAUUGAGCAUCA
B10: 144935909_144936029_2875_3pUTR_ENSMUSG00000038970_ENSMUST00000041804|mouse|control|control (ssRNA)
RNA: GGGAGUUCUACAGUCCGACGAUCAAAUGGCUCAUUUUGUAAAUCCUGUCUCGAUUCUGGAAGACAACUCUCCACGCUACCCUGAGCAGUAAUAUCAUUCACAAGGAUGGGGUGUCUGUUGGUUAGACUCAAGGCCUCCUUGCUCAACAGAGGAUUGAGCAUCA
B11: chr1:60041781:60041782:+_ENSMUSG00000041040_ENSMUST00000036540|mus_hu|mus_mus_mus_hu_False|1_108 (ssRNA)
RNA: GGGAGUUCUACAGUCCGACGAUCAAGAGGAGUGAAUUAAAGUAAAUGCAGUAGUGGCAAAUUUUCUUUUAUUUUCCUUCACAAAAGAAAAUCUUUAUAACCCAGUCCUAGUCUUGGACAUAGUGAAAGCUAUAAAUGCCACUGCAACAGAGGAUUGAGCAUCA
B12: chr19:26705166:26705167:+_ENSMUSG00000024921_ENSMUST00000025862|mus_mus|FALSE|FALSE (ssRNA)
RNA: GGGAGUUCUACAGUCCGACGAUCUCCAGAUAUAGGGCUAGAGACGUGCUCCGGGGCUCCCAGAGGAGACGGAUGUGGUGACAUAUAACCUUGGCUGUGCUGGUCCAUGGGGCUCUGUGGAGGGCCCAUUCCUGGGUGUGGGGGCAACAGAGGAUUGAGCAUCA
B13: chr7:75932113:75932114:+_ENSG00000106211_ENST00000248553|hu_hu|hu_hu_hu_mus_False|78_98 (ssRNA)
RNA: GGGAGUUCUACAGUCCGACGAUCCUGCGACCACUCAUCCGGCAGCCGGGGCACCCCGAAGGCCUGGUCGAAGAGGCGGCUGUGUGCAGGGUACCAGUCCCGGAAUGGUUCCCAGCUCGGGCUCCGCAGCAGCGAGAAGGGCACCAACAGAGGAUUGAGCAUCA
B14: chr5:6374528:6374529:-_ENSG00000133398_ENST00000255764|hu_hu|FALSE|FALSE (ssRNA)
RNA: GGGAGUUCUACAGUCCGACGAUCAGCUAGAGCCCUCUCCAGGCACUCUUUGGUGUAGAGCUGGGGAUUUCGACCUUGAUCUAUAUAUUCAAAAACUUCUAACGGUACAGUAAUAUCAUGAAGCUGCUGUCUGCACUUGUCAAUCAACAGAGGAUUGAGCAUCA

This is one part of the list.

For the assay, the target named is T1, UNK ZnF1-3. The assay is described as follows: nsRBNS (natural sequence RNA bind-n-seq); RBNS binding buffer (assumed for nsRBNS): 25 mM Tris pH 7.5, 150 mM KCl, 3 mM MgCl2, 0.01% Triton X-100, 500 ug/ml BSA, 20 U/ml SUPERase-In, 4 C; UNK is unkempt and MSI1 is Musashi-1; names of the RNAs are library labels; protein concentration not given here; high values mean tight binding.
B1: the binding signal was determined as 1.4 enrichment R.

B2 gave a binding signal of 1.15 enrichment R.

Take B3: the binding signal stood at 0.594 enrichment R.

With B4, the binding signal came out at 0.824 enrichment R.

For the molecule B5, the binding signal was 1.15 enrichment R.

For the molecule B6, the binding signal is 0.775 enrichment R.

On to B7, for which the binding signal is 0.903 enrichment R.

B8 yielded a binding signal of 2.53 enrichment R.

In turn, B9 registered a binding signal of 0.443 enrichment R.

The molecule B10 registered a binding signal of 0.911 enrichment R.

On to B11, for which the binding signal was 0.858 enrichment R.

B12 yielded a binding signal of 1.27 enrichment R.

B13 had a binding signal of 0.784 enrichment R.

B14 returned a binding signal of 1.12 enrichment R.

The record behind these values is paper PMC12136788.
